Laboratory results reported in the supplement of paper PMC9135407.
Where “and” joins values, the source holds several entries; their conditions need not be identical. Equal entries are not always repeated. Structures can show the parent of a compound that is named as a salt. Out of some 5,800 compounds screened, about 620 (11%) showed activity.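 How the source made its calls: active = score above a cut-off or among the top three wells of a plate; in these data no inactive exceeds 0.85.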 Only a part is listed here, and it is no random draw.

System: primary human hepatic stellate cells (donor 1)
Assay: scaled lipid accumulation score (0 = DMSO-like, 1 = nortriptyline-like); higher = stronger HSC inactivation (lipid re-accumulation), active = hit call of the paper
Settings: 48 h
[1] = library stock concentration: 80 uM
[2] = library stock concentration: 400 uM
[3] = library stock concentration: 2 mM
[4] = library stock concentration: 10 mM
[5] = library stock concentration: 3.33 mM

CCn1cc(-c2ccnc3[nH]c(-c4cccc(CN(C)C)c4)cc23)c(-c2ccc(NC(=O)N(C)C)cc2)n1
scaled lipid accumulation score [1]: inactive: ≤ 0
scaled lipid accumulation score [2]: inactive: ≤ 0
scaled lipid accumulation score [3]: inactive: 0.222

[Cl-].[Li+] [Lithium Chloride]
scaled lipid accumulation score [4]: inactive: ≤ -0.07

CN1C(=O)CC(C)(c2ccccc2)C1=O (configuration not stated)
scaled lipid accumulation score [4]: inactive: ≤ 0

CCN(CC)CCNC(=O)c1ccc(NC(C)=O)cc1 [Acecainide hydrochloride]
scaled lipid accumulation score (library stock concentration: 6.4 mM): inactive: ≤ 0

CCN(CC)CCNC(=O)c1ccc(NC(C)=O)cc1 [N-Acetylprocainamide hydrochloride]
scaled lipid accumulation score [4]: inactive: ≤ 0

CCCCCCN(CCCCCC)C(=O)Cc1c(-c2ccc(F)cc2)[nH]c2ccccc12 [N,N-Dihexyl-2-(4-fluorophenyl)indole-3-acetamide]
scaled lipid accumulation score [4]: inactive: 0.151

CCCCCCN(CCCCCC)C(=O)Cc1c(-c2ccc(F)cc2)[nH]c2ccccc12
scaled lipid accumulation score [4]: inactive: 0.028

O=S(=O)(NCCNCC=Cc1ccc(Br)cc1)c1cccc2cnccc12
scaled lipid accumulation score [5]: inactive: 0.01
scaled lipid accumulation score [4]: inactive: 0.542

OC1CCC(Nc2nc(-c3ccccc3)nc3[nH]ccc23)CC1 (configuration not stated)
scaled lipid accumulation score [4]: inactive: ≤ -0.001

CC(=O)NNC(=O)N1Cc2ccccc2Oc2ccc(Cl)cc21
scaled lipid accumulation score [4]: inactive: ≤ 0 and inactive: ≤ -0.006

CNC[C@H](O)c1cccc(O)c1 [Phenylephrine HCl]
scaled lipid accumulation score [5]: inactive: 0.013
scaled lipid accumulation score [4]: inactive: ≤ 0

CNC[C@H](O)c1cccc(O)c1 [Phenylephrine hydrochloride]
scaled lipid accumulation score [4]: inactive: 0.059 and inactive: 0.138

OCc1ccc(-c2ccc(-c3ccc(CO)s3)o2)s1
scaled lipid accumulation score [5]: inactive: 0.238
scaled lipid accumulation score [4]: inactive: 0.515

CCOC(=O)Nc1ccc2c(c1)N(C(=O)CCN1CCOCC1)c1ccccc1S2 [Moricizine hydrochloride]
scaled lipid accumulation score: inactive: 0.015

O=c1c(-c2ccc(O)cc2)coc2cc(O)cc(O)c12 [Genistein]
scaled lipid accumulation score (library stock concentration: 1 mM): inactive: 0.008
scaled lipid accumulation score [5]: inactive: ≤ 0
scaled lipid accumulation score [4]: inactive: ≤ 0 and inactive: ≤ -0.07 and inactive: ≤ -0.006
scaled lipid accumulation score (library stock concentration: 19.2 mM): inactive: 0.047

Cc1cc(N2CCOCC2)ccc1Nc1nc(NC2CCCCC2)c2[nH]cnc2n1
scaled lipid accumulation score [5]: inactive: 0.091
scaled lipid accumulation score [4]: inactive: ≤ 0

Nc1c2c(nc3c1CCC3)CCCC2
scaled lipid accumulation score [4]: inactive: ≤ 0

CNCC[C@H](Oc1cccc2ccccc12)c1cccs1 [Duloxetine]
scaled lipid accumulation score [4]: active: 1.39

O=C(O)c1ccc(Nc2ncc3c(n2)-c2ccc(Cl)cc2C(c2c(F)cccc2F)=NC3)cc1
scaled lipid accumulation score [1]: inactive: ≤ 0
scaled lipid accumulation score [2]: inactive: ≤ 0
scaled lipid accumulation score [3]: inactive: ≤ 0
scaled lipid accumulation score [5]: inactive: ≤ 0
scaled lipid accumulation score [4]: inactive: ≤ 0
